{"source": "paper PMC12040169", "about": "(PLOS Biology, 2025)", "note": "The other results are listed elsewhere or left out.", "data": [{"system": "T1, C. trachomatis L2/434/Bu expressing GFP (CTL2-GFP)", "T1 construct": "L2/434/Bu GFP intracellular growth in HeLa cells", "design": "species or system HeLa; C. trachomatis total inclusion area by high-content imaging, normalised to DMSO", "conditions": "total inclusion area; 28.5 h, 10 µM; inhibitor", "outline": "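Imaging read-out: GFP inclusions and Hoechst nuclei captured by high-content imaging after fixation. Inclusion area/number = chlamydial growth; nuclei count = host cell viability. MIC calculated per earlier method.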", "values": [{"smiles": "N#Cc1ccccc1CSc1nc(N2CCOCC2)nc(N2CCOCC2)n1", "note": "[CBK268998]", "% of control remaining": 115.742}, {"smiles": "Cc1cc(C)n(-c2nc3ccccc3nc2N2CCN(S(=O)(=O)c3ccc4ccccc4c3)CC2)n1", "note": "[CBK269134]", "% of control remaining": 89.5949}, {"smiles": "Cc1ccc(-c2cc(C(=O)NCc3cccnc3)c3ccccc3n2)cc1C", "note": "[CBK265402]", "% of control remaining": 113.659}, {"smiles": "COc1cc(C(=O)NC(C)C(=O)NN)cc(OC)c1OC", "note": "(stereo not drawn) [CBK262609]", "% of control remaining": 109.237}, {"smiles": "COc1cc(Nc2cc(-n3nc(C)cc3C)ncn2)cc(OC)c1OC", "note": "[CBK288594]", "% of control remaining": 101.33}, {"smiles": "CCOC(=O)CSC/C(=N/Nc1ccccc1)c1cccs1", "note": "[CBK006956]", "% of control remaining": 76.5641}, {"smiles": "O=C(c1ccco1)N1CCC[C@@H]1[C@@H](O)c1cccs1", "note": "[CBK284291]", "% of control remaining": 78.5718}, {"smiles": "CC1CCN(Cc2c(O)ccc3c(=O)c(-c4cccc(Cl)c4)c(C(F)(F)F)oc23)CC1", "note": "[CBK266258]", "% of control remaining": 154.197}, {"smiles": "N#Cc1ccccc1CSc1nnc(-c2ccco2)n1-c1ccccc1", "note": "[CBK267270]", "% of control remaining": 86.7834}, {"smiles": "COc1ccc(C(=O)N2CC[C@@H]3NC(=O)[C@H]4C[C@H](NC(=O)C5CCC5)CN4C(=O)[C@H]32)cc1", "note": "[CBK289268]", "% of control remaining": 87.5478}, {"smiles": "Cc1ccsc1C(=O)Nc1ncn(CC(=O)N2CCCCCC2)n1", "note": "[CBK304192]", "% of control remaining": 19.1821}, {"smiles": "O=C(Cn1cc(Br)ccc1=O)NC1CCN(Cc2ccccn2)CC1", "note": "[CBK305686]", "% of control remaining": 80.9483}, {"smiles": "CNC(=O)C1(Cc2ccccc2-c2ccccc2C)CCN(C(=O)Cc2ccccc2)CC1", "note": "[CBK285901]", "% of control remaining": 96.2499}, {"smiles": "COc1cc(C2(O)CCN(Cc3ccccc3)C2)ccc1OCc1ccccc1", "note": "(stereo not drawn) [CBK045620]", "% of control remaining": 54.0808}, {"smiles": "N#CC(C(N)=O)C(c1ccc(Br)cc1)c1c(-c2ccccc2)nn(-c2nc(-c3ccccc3)cs2)c1O", "note": "(stereo not drawn) [CBK262697]", "% of control remaining": 87.7811}, {"smiles": "C=CCOCc1cc(O)n2nc(SC)c(C(N)=O)c2n1", "note": "[CBK008592]", "% of control remaining": 85.9643}, {"smiles": "CN1CCN(CCC(=O)N/N=C/c2ccc(O)cc2O)CC1", "note": "[CBK262849]", "% of control remaining": 70.1405}, {"smiles": "CC(=O)Nc1cccc(C(=O)N2CCCC2c2ccncc2)c1", "note": "(stereo not drawn) [CBK305080]", "% of control remaining": 75.1318}, {"smiles": "OC(COCc1ccc2c(c1)OCO2)CN1CCN(c2ccccn2)CC1", "note": "(stereo not drawn) [CBK278246C]", "% of control remaining": 102.37}, {"smiles": "O=C1NC[C@@H](CCC(=O)N2CCCCC2)N2C[C@@H](NS(=O)(=O)c3ccccc3)C[C@@H]12", "note": "[CBK289012]", "% of control remaining": 103.957}, {"smiles": "C[C@@H]1CN(C)CCN1c1nccnc1OCCOc1cccnc1OCCCCCN(C)C", "note": "[CBK051566]", "% of control remaining": 63.6006}, {"smiles": "O=c1[nH]c2ncc(-c3ccco3)nc2n1Cc1ccccn1", "note": "[CBK064349]", "% of control remaining": 103.33}, {"smiles": "CCOC(=O)c1ccc(-n2sc3ccccc3c2=O)cc1", "note": "[CBK115552]", "% of control remaining": 94.0178}, {"smiles": "Cn1c(=O)n(C)c2cc(CNC(=O)C3NCCc4[nH]cnc43)ccc21", "note": "(stereo not drawn) [CBK307274]", "% of control remaining": 77.9794}, {"smiles": "CC(Oc1ccccc1)c1nnc(SCC(=O)Nc2ccc(Br)cc2F)n1C", "note": "(stereo not drawn) [CBK266364]", "% of control remaining": 91.7178}, {"smiles": "CCCC(=O)c1ccc(S(=O)(=O)N2CCCN(Cc3cccnc3N3CCOCC3)CC2)cc1", "note": "[CBK062900]", "% of control remaining": 73.2123}, {"smiles": "CCn1c(C)nnc1SCCNc1cc(C)nc2ccnn12", "note": "[CBK306607]", "% of control remaining": 62.5598}, {"smiles": "COc1ccc(C(=O)C2=C(O)C(=O)N(CCN(C)C)C2c2cccc([N+](=O)[O-])c2)cc1Cl", "note": "(stereo not drawn) [CBK266474]", "% of control remaining": 104.382}, {"smiles": "c1ccc2c(c1)CCN2c1ncnc2c1nc1n2CCCCC1", "note": "[CBK291119]", "% of control remaining": 105.001}, {"smiles": "CCN1CCN(C(=O)C2CCCCC2C(=O)O)CC1", "note": "(stereo not drawn) [CBK270337]", "% of control remaining": 82.7529}, {"smiles": "COc1ccc(Oc2ncnc3c2[nH]c2ccccc23)cc1", "note": "[CBK291254]", "% of control remaining": 87.8306}, {"smiles": "O=C(NCc1cccs1)C1CCCN1c1nc(O)cc(C(F)(F)F)n1", "note": "(stereo not drawn) [CBK004299]", "% of control remaining": 93.7172}, {"smiles": "Cn1cc(NC(=O)CCn2c(C(F)F)cc3cccnc32)cn1", "note": "[CBK284740]", "% of control remaining": 102.132}, {"smiles": "COC(=O)[C@@H]1Cc2ncn(C)c2CN1S(=O)(=O)c1ccc(C#N)cc1", "note": "[CBK288993]", "% of control remaining": 111.642}, {"smiles": "O=C(CC1SC(NC2CCCCCC2)=NC1=O)NCc1c(F)cccc1Cl", "note": "(stereo not drawn) [CBK067656]", "% of control remaining": 79.6313}, {"smiles": "Cn1c(SCC(=O)NCCCN2CCOCC2)nc2ccccc2c1=O", "note": "[CBK287607]", "% of control remaining": 115.748}, {"smiles": "CCOc1cc(O)c(-c2nc(N)ncc2-c2ccc3c(c2)OCCO3)cc1CC", "note": "[CBK288174]", "% of control remaining": 125.17}, {"smiles": "C[C@@H]1CNCCN1c1cc(C(F)(F)F)cc(OCc2ccccc2)n1", "note": "[CBK026755]", "% of control remaining": 48.6459}, {"smiles": "CCNCCNc1ccc([N+](=O)[O-])cc1", "note": "[CBK264179C]", "% of control remaining": 119.579}, {"smiles": "Cc1noc(C)c1NC(=O)c1cncnc1", "note": "[CBK200382]", "% of control remaining": 98.6111}, {"smiles": "O=C1CSC(c2cccc(Cl)c2Cl)N1C1CCCCC1", "note": "(stereo not drawn) [CBK020678]", "% of control remaining": 79.3857}, {"smiles": "CN(C)CCN(C)c1ccc(-c2cc3ccccc3o2)cn1", "note": "[CBK036820]", "% of control remaining": 72.153}, {"smiles": "Nc1cc(O)nc(SCC(=O)N2CCN(C(c3ccccc3)c3ccccc3)CC2)n1", "note": "[CBK268014]", "% of control remaining": 96.0219}, {"smiles": "O=C(O)CCn1c2ccc(Cl)cc2c2cc(Cl)ccc21", "note": "[CBK261415]", "% of control remaining": 116.36}, {"smiles": "CN1CCN(C2c3ccccc3Oc3ccccc32)CC1", "note": "[CBK066891]", "% of control remaining": 111.166}, {"smiles": "Cc1oc2ccc(O)cc2c1C(=O)N(C)C(C)Cc1ccccn1", "note": "(stereo not drawn) [CBK282627]", "% of control remaining": 106.227}, {"smiles": "OCc1ccc(-c2nccnc2NCCc2c[nH]c3ccccc23)cc1", "note": "[CBK038004]", "% of control remaining": 141.115}, {"smiles": "O=C(O)c1cccc(-c2cncc(NCc3ccncc3)n2)c1", "note": "[CBK037915]", "% of control remaining": 85.9815}, {"smiles": "O=c1oc2ccccc2c2nc(-c3ccncc3)ncc12", "note": "[CBK288536]", "% of control remaining": 84.9803}, {"smiles": "Cc1[nH]c2ccccc2c1/C=C1/C(=N)N2C(SCc3ccccc3)=NSC2=NC1=O", "note": "[CBK265291]", "% of control remaining": 105.086}, {"smiles": "S=c1[nH]nc(Cn2ccc(-c3ccccc3)n2)o1", "note": "[CBK022019]", "% of control remaining": 72.4018}]}]}
